Measurements reported in the supplement of paper PMC12645437, “Orthogonal IMiD-Degron Pairs Induce Selective Protein Degradation in Cells” (ACS Chemical Biology, 2025).
Some of the results follow.

molecular target: no compound (DMSO); test: log2 fold change of degron read counts, EGFP-low vs EGFP+ sorted cells; higher = lower degron-EGFP level without compound (poor expression or instability); conditions: compound: DMSO control; 18 h
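Also: jurkat cells carrying a lentiviral library of mutant zinc finger degrons fused to EGFP plus mCherry, mCherry+ cells FACS sorted, degron abundance counted by next-generation sequencing.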

| Sequence | log2 fold change of degron read counts |
| --- | --- |
| FECEVCGAAFTQKGNLLRHIKL | -1.59 |
| FSCNVCGAGFTQKGNLLRHIKL | -0.975 |
| FRCDQCGAWFTQKGNLLRHIKL | -0.158 |
| FFCDICGAVFTQKGNLLRHIKL | -0.00247 |
| LLCNQCGFKCTQKGNLLRHIKL | 0.51 |
| FFCNQCGRPFTQKGNLLRHIKL | 0.75 |
| FCCEICGARFTQKGNLLRHIKL | -1.55 |
| FYCPICGATFTQKGNLLRHIKL | 0.381 |
| FCCPICGHKFTQKGNLLRHIKL | -0.949 |
| FTCPICGAYFTQKGNLLRHIKL | 0.44 |
| FTCDVCGAWFTQKGNLLRHIKL | -1.55 |
| FNCEICGAHFTQKGNLLRHIKL | -1.7 |
| FSCEICGHPFTQKGNLLRHIKL | -0.975 |
| FLCNVCGAHFTQKGNLLRHIKL | -0.555 |
| FYCPVCGALFTQKGNLLRHIKL | 0.802 |
| FECNQCGAFFTQKGNLLRHIKL | -0.876 |
| FNCPVCGAYFTQKGNLLRHIKL | 0.519 |
| FACPVCGAEFTQKGNLLRHIKL | -1.12 |
| FTCPVCGARFTQKGNLLRHIKL | 0.0513 |
| LVCNQCGFACTQKGNLLRHIKL | -0.364 |
| FHCNVCGAAFTQKGNLLRHIKL | -0.358 |
| FGCEQCGAEFTQKGNLLRHIKL | -2.73 |
| FVCPICGRYFTQKGNLLRHIKL | 0.0378 |
| FTCPICGRPFTQKGNLLRHIKL | 0.116 |
| FGCPICGHQFTQKGNLLRHIKL | -0.479 |

| Sequence | log2 fold change of degron read counts |
| --- | --- |
| FLCNICGAMFTQKGNLLRHIKL | 0.0174 |
| FLCNQCGAEFTQKGNLLRHIKL | -1.76 |
| LRCPICGFDCTQKGNLLRHIKL | 0.877 |
| FVCPICGAHFTQKGNLLRHIKL | 0.21 |
| FSCEQCGASFTQKGNLLRHIKL | -2.08 |
| FVCDVCGAFFTQKGNLLRHIKL | -1.67 |
| LQCEICGFLCTQKGNLLRHIKL | 0.12 |
| FYCNICGARFTQKGNLLRHIKL | -0.825 |
| FNCNQCGHFFTQKGNLLRHIKL | 1.38 |
| LYCEICGFQCTQKGNLLRHIKL | 0.0706 |
| FQCNICGATFTQKGNLLRHIKL | 0.0634 |
| LSCPICGFVCTQKGNLLRHIKL | 0.704 |
| FLCNQCGRGFTQKGNLLRHIKL | -0.573 |
| LVCEICGFACTQKGNLLRHIKL | -0.441 |
| FICEVCGAGFTQKGNLLRHIKL | -2 |
| FKCPVCGAYFTQKGNLLRHIKL | 0.359 |
| FRCPVCGALFTQKGNLLRHIKL | 0.0468 |
| LKCEICGFYCTQKGNLLRHIKL | 0.326 |
| FVCNQCGHNFTQKGNLLRHIKL | -0.654 |
| FTCNVCGACFTQKGNLLRHIKL | -0.087 |
| FYCNQCGRAFTQKGNLLRHIKL | 0.222 |
| LICPICGFFCTQKGNLLRHIKL | 1.85 |
| FYCNICGAAFTQKGNLLRHIKL | -0.979 |
| FTCEICGAFFTQKGNLLRHIKL | -0.662 |
| FNCEICGAIFTQKGNLLRHIKL | 0.399 |
